In patent US20210002342A1 (ACCELERON PHARMA, published 2021):

Key:
BMP15 = biological target: T1, BMP15 (human, UniProt O95972 268-392); test: Biacore SPR, BMPRII-Fc captured by anti-Fc antibody, ligand injected
T1 sequence (looked up): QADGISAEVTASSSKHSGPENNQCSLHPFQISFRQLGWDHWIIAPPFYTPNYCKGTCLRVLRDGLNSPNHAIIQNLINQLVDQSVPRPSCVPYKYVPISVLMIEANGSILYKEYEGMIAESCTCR
Experimental: (§1) A Biacore™-based binding assay was used to determine the ligand binding selectivity of the BMPRII-Fc protein complex described above. The BMPRII-Fc homodimer was captured onto the system using an anti-Fc antibody, and ligands were injected and allowed to flow over the captured receptor protein.

Activin B = biological target: T2, Activin B (human, UniProt P09529 293-407); test: as above
T2 sequence (looked up): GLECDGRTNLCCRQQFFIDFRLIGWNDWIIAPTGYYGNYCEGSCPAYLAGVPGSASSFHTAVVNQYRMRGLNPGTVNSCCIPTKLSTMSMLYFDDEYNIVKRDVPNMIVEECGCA
Experimental: as §1

B1: homodimeric BMPRII-Fc fusion protein (extracellular domain of human BMPRII fused to a human immunoglobulin G1 Fc domain) (Fc fusion)
chain: SQNQERLCAFKDPYQQDLGIGESRISHENGTILCSKGSTCYGLWEKSKGDINLVKQGCWSHIGDPQECHYEECVVTTTPPSIQNGTYRFCCCSTDLCNVNFTENFPPPDTTPLSPPHSFNRDETG[letters of human IgG1 Fc and a few adjoining residues not shown]
notes: Expressed in a CHO cell line and captured by an anti-Fc antibody in the Biacore assay; also called BMPRII-Fc homodimer; BMPRII-Fc protein complex
Binder B1 has a Kd (BMP15) of 0.29 nM, a koff (BMP15) of 0.0028 s⁻¹ and a kon (BMP15) of 9.9e+06 M⁻¹ s⁻¹. For the same binder, the Kd (Activin B) was 3.8 nM, the koff (Activin B) was 0.075 s⁻¹ and the kon (Activin B) was 2e+07 M⁻¹ s⁻¹.
